Data: the supplement of paper PMC4604168 (melanoma cell lines)
This is one part of the list. Single values are uncertain, as repeats are few or missing.

Tested on: WM3526
Assay: cell count relative to DMSO control; melanoma cells; higher = more viable cells
Settings: library dose: low library concentration; 72 h; first compound 0.4 µM
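Further: cell number obtained by counting DAPI-stained nuclei in high-throughput microscope images with image analysis software, screen run in 1,536-well plates.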

SMILES | cell count [%]
Cn1sc(=O)n(Cc2ccccc2)c1=O + Cn1c(Nc2ccc(C(F)(F)F)cc2)nc2cc(Oc3ccnc(-c4ncc(C(F)(F)F)[nH]4)c3)ccc21 [CHIR265] (partner dose 0.08 µM) | 63
CCCCCCCCCCCCCCCCCCOP(=O)([O-])OC1CC[N+](C)(C)CC1 [Perifosine] + Clc1ccc(Nc2nnc(Cc3ccncc3)c3ccccc23)cc1 [vatalanib] (partner dose 2 µM) | 95.8
C[C@@H](N)c1ccc(C(=O)Nc2ccnc3[nH]ccc23)cc1 + Nc1cccc2c1CN(C1CCC(=O)NC1=O)C2=O [lenalidomide] (partner dose 1 µM) | 111
CCCCCCCCCCCCCCCCCCOP(=O)([O-])OC1CC[N+](C)(C)CC1 [Perifosine] + NC1(c2ccc(-c3nc4ccn5c(=O)[nH]nc5c4cc3-c3ccccc3)cc2)CCC1 [MK2206] (partner dose 0.4 µM) | 91.4
Cn1sc(=O)n(Cc2ccccc2)c1=O + NC(=O)c1ccc(N(C(N)=O)c2c(F)cccc2F)nc1-c1ccc(F)cc1F [VX702] (partner dose 0.4 µM) | 90.9
Cn1sc(=O)n(Cc2ccccc2)c1=O + CC(=O)c1c(C)c2cnc(Nc3ccc(N4CCNCC4)cn3)nc2n(C2CCCC2)c1=O [palbociclib] (partner dose 0.04 µM) | 62.1
Cn1sc(=O)n(Cc2ccccc2)c1=O + COc1ccc(-c2ccc3c(N4CCOCC4)nc(N4C[C@@H](C)O[C@@H](C)C4)nc3n2)cc1CO [KU0063794] (partner dose 0.02 µM) | 85.8
Cn1sc(=O)n(Cc2ccccc2)c1=O + O=C1NC(=O)/C(=C/c2ccc(-c3ccc(F)cc3O)o2)S1 [AS252424] (partner dose 1 µM) | 90.6
Cn1sc(=O)n(Cc2ccccc2)c1=O + COc1cc(Nc2ncc(F)c(Nc3ccc4c(n3)NC(=O)C(C)(C)O4)n2)cc(OC)c1OC [Tamatinib] (partner dose 0.4 µM) | 80.1
C[C@@H](N)c1ccc(C(=O)Nc2ccnc3[nH]ccc23)cc1 + Nc1nc(F)nc2c1ncn2[C@@H]1O[C@H](CO)[C@@H](O)[C@@H]1O [fludarabine] (partner dose 0.2 µM) | 31.2
Cn1sc(=O)n(Cc2ccccc2)c1=O + Nc1nc(F)nc2c1ncn2[C@@H]1O[C@H](CO)[C@@H](O)[C@@H]1O [fludarabine] (partner dose 0.2 µM) | 23.2
Cn1sc(=O)n(Cc2ccccc2)c1=O + c1cc(-c2cnn3cc(-c4ccc(OCCN5CCCCC5)cc4)cnc23)ccn1 [Dorsomorphin] (partner dose 0.4 µM) | 92.1
Cn1sc(=O)n(Cc2ccccc2)c1=O + C=CCn1c(=O)c2cnc(Nc3ccc(N4CCN(C)CC4)cc3)nc2n1-c1cccc(C(C)(C)O)n1 [MK1775] (partner dose 0.02 µM) | 95.6
Cn1sc(=O)n(Cc2ccccc2)c1=O + OCCn1cc(-c2cnc3nnn(Cc4ccc5ncccc5c4)c3n2)cn1 [PF04217903] (partner dose 1 µM) | 119
Cn1sc(=O)n(Cc2ccccc2)c1=O + Cn1c(=O)n(-c2ccc(C(C)(C)C#N)cc2)c2c3cc(-c4cnc5ccccc5c4)ccc3ncc21 [NVP-BEZ235] (partner dose 0.004 µM) | 90.8
Cn1sc(=O)n(Cc2ccccc2)c1=O + C#Cc1cccc(Nc2ncnc3cc(OCCOC)c(OCCOC)cc23)c1 [erlotinib] (partner dose 0.8 µM) | 91.8
Cn1sc(=O)n(Cc2ccccc2)c1=O + COC(=O)c1sccc1S(=O)(=O)Nc1ccc(Nc2ccccc2)cc1OC [GSK0660] (partner dose 1 µM) | 100
C[C@@H](N)c1ccc(C(=O)Nc2ccnc3[nH]ccc23)cc1 + COc1ccc(Cl)c(Nc2nc3ccccc3nc2NS(=O)(=O)c2cccc(NC(=O)C(C)(C)N)c2)c1 [XL147] (partner dose 0.8 µM) | 131
C[C@@H](N)c1ccc(C(=O)Nc2ccnc3[nH]ccc23)cc1 + CCc1ccc(CCOc2ccc(CC3SC(=O)NC3=O)cc2)nc1 [pioglitazone] (partner dose 2 µM) | 110
CCCCCCCCCCCCCCCCCCOP(=O)([O-])OC1CC[N+](C)(C)CC1 [Perifosine] + COc1ccc(C2=N[C@@H](c3ccc(Cl)cc3)[C@@H](c3ccc(Cl)cc3)N2C(=O)N2CCNC(=O)C2)c(OC(C)C)c1 [Nutlin-3] (partner dose 0.1 µM) | 108

SMILES | cell count [%]
CCCCCCCCCCCCCCCCCCOP(=O)([O-])OC1CC[N+](C)(C)CC1 [Perifosine] + CNC(=O)c1cc(Oc2ccc(NC(=O)Nc3ccc(Cl)c(C(F)(F)F)c3)cc2)ccn1 [sorafenib] (partner dose 0.4 µM) | 103
C[C@@H](N)c1ccc(C(=O)Nc2ccnc3[nH]ccc23)cc1 + COc1cc(N2CCC(N3CCN(C)CC3)CC2)ccc1Nc1ncc(Cl)c(Nc2ccccc2S(=O)(=O)C(C)C)n1 [NVP-TAE684] (partner dose 0.08 µM) | 104
Cn1sc(=O)n(Cc2ccccc2)c1=O + Nc1cccc2c1CN(C1CCC(=O)NC1=O)C2=O [lenalidomide] (partner dose 1 µM) | 90.5
CCCCCCCCCCCCCCCCCCOP(=O)([O-])OC1CC[N+](C)(C)CC1 [Perifosine] + O=C1NC(=O)/C(=C/c2ccc(-c3ccc(F)cc3O)o2)S1 [AS252424] (partner dose 1 µM) | 82.1
Cn1sc(=O)n(Cc2ccccc2)c1=O + O=C(Nc1ccccc1)c1cc([N+](=O)[O-])ccc1Cl [GW9662] (partner dose 2 µM) | 96.8
Cn1sc(=O)n(Cc2ccccc2)c1=O + Clc1ccc(Nc2nnc(Cc3ccncc3)c3ccccc23)cc1 [vatalanib] (partner dose 2 µM) | 87.4
C[C@@H](N)c1ccc(C(=O)Nc2ccnc3[nH]ccc23)cc1 + C[C@@H](Oc1cc(-c2cnn(C3CCNCC3)c2)cnc1N)c1c(Cl)ccc(F)c1Cl [Crizotinib] (partner dose 0.2 µM) | 99.2
C[C@@H](N)c1ccc(C(=O)Nc2ccnc3[nH]ccc23)cc1 + CC(C)CCN1c2nc(Nc3cc(F)c(O)c(F)c3)ncc2N(C)C(=O)C1C [BID1870] (partner dose 0.2 µM) | 99.3
C[C@@H](N)c1ccc(C(=O)Nc2ccnc3[nH]ccc23)cc1 + C[C@]1(c2nc3c(C(N)=O)cccc3[nH]2)CCCN1 [Veliparib] (partner dose 1.4 µM) | 111
Cn1sc(=O)n(Cc2ccccc2)c1=O + COc1ccc(C2=N[C@@H](c3ccc(Cl)cc3)[C@@H](c3ccc(Cl)cc3)N2C(=O)N2CCNC(=O)C2)c(OC(C)C)c1 [Nutlin-3] (partner dose 0.1 µM) | 98.8
CCCCCCCCCCCCCCCCCCOP(=O)([O-])OC1CC[N+](C)(C)CC1 [Perifosine] + CCCCCCCCCCCC1=C(O)C(=O)C=C(O)C1=O [Embelin] (partner dose 1.2 µM) | 103
CCCCCCCCCCCCCCCCCCOP(=O)([O-])OC1CC[N+](C)(C)CC1 [Perifosine] + COC(=O)c1sccc1S(=O)(=O)Nc1ccc(Nc2ccccc2)cc1OC [GSK0660] (partner dose 1 µM) | 99
C[C@@H](N)c1ccc(C(=O)Nc2ccnc3[nH]ccc23)cc1 + Cc1cc(Nc2cc(N3CCN(C)CC3)nc(/C=C/c3ccccc3)n2)n[nH]1 [ENMD2076] (partner dose 0.04 µM) | 111
CCCCCCCCCCCCCCCCCCOP(=O)([O-])OC1CC[N+](C)(C)CC1 [Perifosine] + COCC[n+]1c2c(n(Cc3cnccn3)c1C)C(=O)c1ccccc1C2=O [YM155] (partner dose 0.0004 µM) | 101
C[C@@H](N)c1ccc(C(=O)Nc2ccnc3[nH]ccc23)cc1 + O=C(Nc1cccc(Cl)c1)Nc1ncc(CCNc2ncnc3ccsc23)s1 [SNS314] (partner dose 0.0008 µM) | 103
CCCCCCCCCCCCCCCCCCOP(=O)([O-])OC1CC[N+](C)(C)CC1 [Perifosine] + C=CCn1c(=O)c2cnc(Nc3ccc(N4CCN(C)CC4)cc3)nc2n1-c1cccc(C(C)(C)O)n1 [MK1775] (partner dose 0.02 µM) | 78.7
CCCCCCCCCCCCCCCCCCOP(=O)([O-])OC1CC[N+](C)(C)CC1 [Perifosine] + C=C(c1ccc(C(=O)O)cc1)c1cc2c(cc1C)C(C)(C)CCC2(C)C [Bexarotene] (partner dose 2 µM) | 79.7
CCCCCCCCCCCCCCCCCCOP(=O)([O-])OC1CC[N+](C)(C)CC1 [Perifosine] + Nc1ncn([C@H]2C[C@H](O)[C@@H](CO)O2)c(=O)n1 [decitabine] (partner dose 0.1 µM) | 100
C[C@@H](N)c1ccc(C(=O)Nc2ccnc3[nH]ccc23)cc1 + C[C@]1(O)C[C@@H](c2nc(-c3ccc4ccc(-c5ccccc5)nc4c3)c3c(N)nccn32)C1 [OSI906] (partner dose 0.4 µM) | 99.7
